These results are taken from the supplement of paper PMC11417369.

± gives the standard deviation of the averaged measurements. The list shows a part of the results.

The test concerns PfAP2-I AP2 domain 3 (GST-tagged). As to the kind of experiment: gcPBM binding intensity (ln(normalized median fluorescence intensity)); higher = stronger DNA binding. Summed up: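 Probes on an Agilent 4 × 180k array were primer-extended, double-stranded and 36 bp long, taken from intergenic genomic regions, with negative controls added. GST-tagged P. falciparum DNA-binding domains from E. coli, about 25 μg on average, were applied to the array for 1 h in 1× PBS containing 1% milk, 0.2 mg/ml BSA, 0.5% salmon testes DNA and 0.03% Triton X-100. Binding intensity, obtained after Alexa488 anti-GST antibody detection and a 488 nm scan, is the highest Masliner-normalised natural-log median intensity across replicate spots of either probe orientation.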
Consider “CGGACATACTAACGGACACACGTAAGAAAAAAAAAG [CACACA_site4504]”, for which the “gcPBM binding intensity (ln)” value was 7.79 ± 0.58.

Take “TATTAATTTTTCCTTTTTTTTTTACCCCTTTGTACA [CACACA_negctrl_site947]”: the “gcPBM binding intensity (ln)” value amounted to 7.81 ± 0.57.

As for “TACACTAATGACAGTTGTACTTTTATTCGATAGAAT [XGTACX_site738]”, the “gcPBM binding intensity (ln)” value came to 7.55 ± 0.47.

For the sequence “TATATATATATAATATGTACATATATACATGCCTTG [XGTACX_site2791]”, the “gcPBM binding intensity (ln)” value turned out to be 8.9 ± 0.41.

Take “TCGAAAATGACGAATGGTACAGTATGTATAAAAATA [XGTACX_site1258]”: the “gcPBM binding intensity (ln)” value is 7.75 ± 0.56.

For the sequence “ACTTTTTTTTTGTGTGTGCACTCGATTATATACATA [GTGCAC_site9846]”, the “gcPBM binding intensity (ln)” value is 10.37 ± 0.092.

“TCAAAATTGCTTTGTTGTACTAATAAAATTTATTAC [XGTACX_site1121]”: the “gcPBM binding intensity (ln)” value is 7.67 ± 0.49.

As for “TATATATACATACGTACACACAAATATTAAAATATA [CACACA_site1951]”, the “gcPBM binding intensity (ln)” value is 8.11 ± 0.092.

For the sequence “TATCTGTAAACATATTCACACACATAAATTCGCATA [CACACA_site8557]”, the “gcPBM binding intensity (ln)” value was determined as 7.71 ± 0.57.

Consider “GTTATATATGATGGAAGCACTTGGAAGAGGGAAATA [CACACA_negctrl_site1831]”, for which the “gcPBM binding intensity (ln)” value is 8.19 ± 0.49.

For the sequence “GATAAATATTTAATATGTACATATATTATATATATA [XGTACX_site117]”, the “gcPBM binding intensity (ln)” value amounted to 8.51 ± 0.32.

In the case of “TATATACACACCGTGTGTACATATACATTAACTGAA [XGTACX_site7120]”, the “gcPBM binding intensity (ln)” value came out at 8 ± 0.25.

Take “AAAAATAAAAAAATAAAAAATAAAAAAATAAAAAAT [CACACA_negctrl_site1425]”: the “gcPBM binding intensity (ln)” value was found to be 7.46 ± 0.7.

Consider “ATATATTATATATGCGCACACACGAATTTTTTTTTT [CACACA_site2393]”, for which the “gcPBM binding intensity (ln)” value came to 8.46 ± 0.53.

Consider “ATTAAAGTTATAAATTCACACATGTAAATGTATTTA [CACACA_site5279]”, for which the “gcPBM binding intensity (ln)” value was found to be 7.47 ± 0.5.

As for “ATATATATATGTATGTATATATATATATATATGTTT [CACACA_negctrl_site248]”, the “gcPBM binding intensity (ln)” value amounted to 9.03 ± 0.64.

On to “TTTCTTTTTTTTTGAAGTACATAAAAATATAAAAAA [XGTACX_site311]”, for which the “gcPBM binding intensity (ln)” value turned out to be 8.03 ± 0.085.

For “TAAATTTTTTCTTTTTGTACATATTTTAAAAATGTT [XGTACX_site7526]”, the “gcPBM binding intensity (ln)” value turned out to be 7.69 ± 0.64.

With “AATATTATAAAATATTGTACTTAAAAAATTATTAAA [XGTACX_site2469]”, the “gcPBM binding intensity (ln)” value worked out at 7.44 ± 0.34.

With “AAAAAGAAAAAGAGCACACAAAAATATTTAACCTTT [CACACA_site2747]”, the “gcPBM binding intensity (ln)” value worked out at 7.89 ± 0.6.

For the sequence “ATGGCATAAATATATGCACACACAAAAAAAAAAAAA [CACACA_site7902]”, the “gcPBM binding intensity (ln)” value was 8.98 ± 0.11.

For “AAAAATATAAATGACACACACTTAAAAACAAAGAAA [CACACA_site4540]”, the “gcPBM binding intensity (ln)” value turned out to be 7.71 ± 0.66.

Regarding “ATTTAAAAAAAAAAAAATAAATAACTTGAAAAACAA [GTGCAC_negctrl_site318]”, the “gcPBM binding intensity (ln)” value is 7.35 ± 0.71.

For the sequence “CTTATATATACGTGCACACATATATATAAGATATAT [CACACA_site1752]”, the “gcPBM binding intensity (ln)” value worked out at 11.03 ± 0.11.
